Laboratory results from the supplement of paper PMC8728848.
Some of the results follow.

Key:
Assay in all cases: glycan array binding signal (z-score within array); higher = stronger binding
Conditions in all cases: glycan notation: IUPAC condensed, linker removed
[1] = biological target: Neu5Ac(a2-3)Gal(b1-4)[Fuc(a1-3)]GlcNAc(b1-3)GalNAc
Method in brief: (§1)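 From the Consortium for Functional Glycomics database, 3228 arrays were curated, keeping only those whose protein sequence was available. Binding is given as a within-array Z-score averaged across arrays sharing a protein sequence and across linkers. Negative Z-scores can be read as non-binding.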

[2] = biological target: Neu5Ac(a2-3)Gal(b1-4)[Fuc(a1-3)]GlcNAc(b1-6)[Gal(b1-3)]GalNAc
Method in brief: as §1

[3] = biological target: Neu5Ac(a2-3)Gal(b1-4)[Fuc(a1-3)]GlcNAc(b1-6)[Neu5Ac(a2-3)Gal(b1-3)]GalNAc
Method in brief: as §1

[4] = biological target: Neu5Ac(a2-3)Gal(b1-4)[Fuc(a1-3)]GlcNAc6S
Method in brief: as §1

[5] = biological target: Neu5Ac(a2-3)Gal6S(b1-4)GlcNAc
Method in brief: as §1

[6] = biological target: Neu5Ac(a2-3)Gal6S(b1-4)[Fuc(a1-3)]GlcNAc
Method in brief: as §1

[7] = biological target: Neu5Ac(a2-3)GalNAc
Method in brief: as §1

[8] = biological target: Neu5Ac(a2-3)GalNAc(b1-4)GlcNAc
Method in brief: as §1

[9] = biological target: Neu5Ac(a2-3)[GalNAc(b1-4)]Gal(b1-4)Glc
Method in brief: as §1

[10] = biological target: Neu5Ac(a2-3)[GalNAc(b1-4)]Gal(b1-4)GlcNAc
Method in brief: as §1

[11] = biological target: Neu5Ac(a2-3)[GalNAc(b1-4)]Gal(b1-4)GlcNAc(b1-3)GalNAc
Method in brief: as §1

[12] = biological target: Neu5Ac(a2-3)[Neu5Ac(a2-6)]GalNAc
Method in brief: as §1

[13] = biological target: Neu5Ac(a2-6)Gal
Method in brief: as §1

[14] = biological target: Neu5Ac(a2-6)Gal(b1-4)Glc
Method in brief: as §1

[15] = biological target: Neu5Ac(a2-6)Gal(b1-4)GlcNAc
Method in brief: as §1

[16] = biological target: Neu5Ac(a2-6)Gal(b1-4)GlcNAc(b1-2)Man(a1-3)Man(b1-4)GlcNAc(b1-4)GlcNAc
Method in brief: as §1

[17] = biological target: Neu5Ac(a2-6)Gal(b1-4)GlcNAc(b1-2)Man(a1-3)[Gal(b1-4)GlcNAc(b1-2)Man(a1-6)]Man(b1-4)GlcNAc(b1-4)GlcNAc
Method in brief: as §1

[18] = biological target: Neu5Ac(a2-6)Gal(b1-4)GlcNAc(b1-2)Man(a1-3)[GlcNAc(b1-2)Man(a1-6)]Man(b1-4)GlcNAc(b1-4)GlcNAc
Method in brief: as §1

[19] = biological target: Neu5Ac(a2-6)Gal(b1-4)GlcNAc(b1-2)Man(a1-3)[GlcNAc(b1-2)Man(b1-4)GlcNAc(b1-2)Man(a1-6)]Man(b1-4)GlcNAc(b1-4)GlcNAc
Method in brief: as §1

[20] = biological target: Neu5Ac(a2-6)Gal(b1-4)GlcNAc(b1-2)Man(a1-3)[Man(a1-6)]Man(b1-4)GlcNAc(b1-4)GlcNAc
Method in brief: as §1

[21] = biological target: Neu5Ac(a2-6)Gal(b1-4)GlcNAc(b1-2)Man(a1-3)[Neu5Ac(a2-6)Gal(b1-4)GlcNAc(b1-2)Man(a1-6)]Man(b1-4)GlcNAc(b1-4)GlcNAc
Method in brief: as §1

[22] = biological target: Neu5Ac(a2-6)Gal(b1-4)GlcNAc(b1-2)Man(a1-6)Man(b1-4)GlcNAc(b1-4)GlcNAc
Method in brief: as §1

[23] = biological target: Neu5Ac(a2-6)Gal(b1-4)GlcNAc(b1-2)Man(a1-6)[Gal(b1-4)GlcNAc(b1-2)Man(a1-3)]Man(b1-4)GlcNAc(b1-4)GlcNAc
Method in brief: as §1

[24] = biological target: Neu5Ac(a2-6)Gal(b1-4)GlcNAc(b1-2)Man(a1-6)[GlcNAc(b1-2)Man(a1-3)]Man(b1-4)GlcNAc(b1-4)GlcNAc
Method in brief: as §1

[25] = biological target: Neu5Ac(a2-6)Gal(b1-4)GlcNAc(b1-2)Man(a1-6)[Man(a1-3)]Man(b1-4)GlcNAc(b1-4)GlcNAc
Method in brief: as §1

[26] = biological target: Neu5Ac(a2-6)Gal(b1-4)GlcNAc(b1-3)Gal(b1-3)GlcNAc
Method in brief: as §1

[27] = biological target: Neu5Ac(a2-6)Gal(b1-4)GlcNAc(b1-3)Gal(b1-4)GlcNAc
Method in brief: as §1

[28] = biological target: Neu5Ac(a2-6)Gal(b1-4)GlcNAc(b1-3)Gal(b1-4)GlcNAc(b1-3)Gal(b1-4)GlcNAc
Method in brief: as §1

[29] = biological target: Neu5Ac(a2-6)Gal(b1-4)GlcNAc(b1-3)Gal(b1-4)[Fuc(a1-3)]GlcNAc(b1-3)Gal(b1-4)[Fuc(a1-3)]GlcNAc
Method in brief: as §1

[30] = biological target: Neu5Ac(a2-6)Gal(b1-4)GlcNAc(b1-3)GalNAc
Method in brief: as §1

[31] = biological target: Neu5Ac(a2-6)Gal(b1-4)GlcNAc6S
Method in brief: as §1

[32] = biological target: Neu5Ac(a2-6)GalNAc
Method in brief: as §1

[33] = biological target: Neu5Ac(a2-6)GalNAc(b1-4)GlcNAc
Method in brief: as §1

[34] = biological target: Neu5Ac(a2-6)GlcNAc(b1-4)GlcNAc
Method in brief: as §1

[35] = biological target: Neu5Ac(a2-6)GlcNAc(b1-4)GlcNAc(b1-4)GlcNAc
Method in brief: as §1

[36] = biological target: Neu5Ac(a2-8)Neu5Ac
Method in brief: as §1

[37] = biological target: Neu5Ac(a2-8)Neu5Ac(a2-3)Gal(b1-4)Glc
Method in brief: as §1

[38] = biological target: Neu5Ac(a2-8)Neu5Ac(a2-3)[GalNAc(b1-4)]Gal(b1-4)Glc
Method in brief: as §1

[39] = biological target: Neu5Ac(a2-8)Neu5Ac(a2-8)Neu5Ac
Method in brief: as §1

[40] = biological target: Neu5Ac(a2-8)Neu5Ac(a2-8)Neu5Ac(a2-3)Gal(b1-4)Glc
Method in brief: as §1

[41] = biological target: Neu5Ac(a2-8)Neu5Ac(a2-8)Neu5Ac(a2-3)[GalNAc(b1-4)]Gal(b1-4)Glc
Method in brief: as §1

[42] = biological target: Neu5Ac(a2-8)Neu5Ac(a2-8)Neu5Ac(a2-8)Neu5Ac(a2-3)[GalNAc(b1-4)]Gal(b1-4)Glc
Method in brief: as §1

[43] = biological target: Neu5Ac(b2-6)Gal(b1-4)GlcNAc
Method in brief: as §1

[44] = biological target: Neu5Ac(b2-6)GalNAc
Method in brief: as §1

[45] = biological target: Neu5Ac9Ac(a2-3)Gal(b1-3)GlcNAc
Method in brief: as §1

[46] = biological target: Neu5Ac9Ac(a2-3)Gal(b1-4)GlcNAc
Method in brief: as §1

[47] = biological target: Neu5Ac9Ac(a2-6)Gal(b1-4)GlcNAc
Method in brief: as §1

[48] = biological target: Neu5Gc(a2-3)Gal(b1-3)GlcNAc
Method in brief: as §1

[49] = biological target: Neu5Gc(a2-3)Gal(b1-3)[Fuc(a1-4)]GlcNAc
Method in brief: as §1

[50] = biological target: Neu5Gc(a2-3)Gal(b1-4)Glc
Method in brief: as §1

[51] = biological target: Neu5Gc(a2-3)Gal(b1-4)GlcNAc
Method in brief: as §1

[52] = biological target: Neu5Gc(a2-3)Gal(b1-4)[Fuc(a1-3)]GlcNAc
Method in brief: as §1

[53] = biological target: Neu5Gc(a2-6)Gal(b1-4)GlcNAc
Method in brief: as §1

[54] = biological target: Neu5Gc(a2-6)GalNAc
Method in brief: as §1

[55] = biological target: Neu5Gc(b2-6)Gal(b1-4)GlcNAc
Method in brief: as §1

B1: cupB6 (Pseudomonas aeruginosa), Q02SP7 (protein)
chain: MSMRLFPGRVSLRRRPGAQARQALVLGLCCLTGGQAWALNEVALNCSFGNGKGLPWRVVNELTSGTAKGTVLFARPVSLFLSYKPQASQEAHELVLGGNWSGVGYPGPYGTVASDVKGIGYRISVDAQDGVKRVIPVDNQPHALDKRVTSFSGSTTSDYLQELVLTVDPGELPAGDLKVTSVSGSATLNLWAVDRLKGEASIGSVLAVPADNYPTGVCRKPYSLIGPASIAIGGGPPPPPIPKKCKVEVGREINVKLGSVALKNFPRVNDTSTERSFDISLSECAALAKPEIAFRDKYVSAQQADPTILSLKSGGAAGFGIVVKNGLDQQRIRFDGTPYPMRRVGDSADLPLSAAYIRIGAEGELKAGVADGAAEFTFTFP
glycan array binding signal (z-score) [1]: 0.376 | glycan array binding signal (z-score) [2]: 0.16 | glycan array binding signal (z-score) [3]: 0.091 | glycan array binding signal (z-score) [4]: -0.239 | glycan array binding signal (z-score) [5]: 0.086 | glycan array binding signal (z-score) [6]: -0.119 | glycan array binding signal (z-score) [7]: -0.166 | glycan array binding signal (z-score) [8]: -0.177 | glycan array binding signal (z-score) [9]: -0.157 | glycan array binding signal (z-score) [10]: 0.036 | glycan array binding signal (z-score) [11]: 0.089 | glycan array binding signal (z-score) [12]: -0.129 | glycan array binding signal (z-score) [13]: 0.026 | glycan array binding signal (z-score) [14]: 0.022 | glycan array binding signal (z-score) [15]: -0.15 | glycan array binding signal (z-score) [16]: 0.058 | glycan array binding signal (z-score) [17]: 0.168 | glycan array binding signal (z-score) [18]: -0.034 | glycan array binding signal (z-score) [19]: -0.105 | glycan array binding signal (z-score) [20]: 0.325 | glycan array binding signal (z-score) [21]: -0.095 | glycan array binding signal (z-score) [22]: -0.029 | glycan array binding signal (z-score) [23]: -0.184 | glycan array binding signal (z-score) [24]: 0.075 | glycan array binding signal (z-score) [25]: 0.107 | glycan array binding signal (z-score) [26]: -0.021 | glycan array binding signal (z-score) [27]: -0.101 | glycan array binding signal (z-score) [28]: 0.004 | glycan array binding signal (z-score) [29]: 0.089 | glycan array binding signal (z-score) [30]: -0.009 | glycan array binding signal (z-score) [31]: -0.105 | glycan array binding signal (z-score) [32]: -0.142 | glycan array binding signal (z-score) [33]: 0.015 | glycan array binding signal (z-score) [34]: -0.156 | glycan array binding signal (z-score) [35]: -0.265 | glycan array binding signal (z-score) [36]: -0.002 | glycan array binding signal (z-score) [37]: -0.053 | glycan array binding signal (z-score) [38]: 0.285 | glycan array binding signal (z-score) [39]: -0.11 | glycan array binding signal (z-score) [40]: -0.142 | glycan array binding signal (z-score) [41]: -0.074 | glycan array binding signal (z-score) [42]: -0.043 | glycan array binding signal (z-score) [43]: 0.165 | glycan array binding signal (z-score) [44]: -0.126 | glycan array binding signal (z-score) [45]: -0.068 | glycan array binding signal (z-score) [46]: -0.009 | glycan array binding signal (z-score) [47]: -0.145 | glycan array binding signal (z-score) [48]: -0.039 | glycan array binding signal (z-score) [49]: -0.08 | glycan array binding signal (z-score) [50]: -0.114 | glycan array binding signal (z-score) [51]: -0.071 | glycan array binding signal (z-score) [52]: 0.036 | glycan array binding signal (z-score) [53]: -0.049 | glycan array binding signal (z-score) [54]: -0.028 | glycan array binding signal (z-score) [55]: -0.096
